# Over roughly 33,000 sequences, “E-score (-0.5 to 0.5)” has its median near -0.016; the highest 2% begin near 0.31. The list shows a part of the results.
# Molecular target: Cst6 (UniProt P40535)
# Assay: PBM E-score (8-mer binding enrichment) (E-score (-0.5 to 0.5)); higher = stronger / more preferred TF binding; most listed sequences are background and not binding sites
# Conditions: protein concentration: 200 nM; construct: GST-DNA-binding domain
# In short: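 Full-length yeast transcription factors or their DNA-binding domains, GST-tagged and expressed with PURExpress, were applied at about 100-200 nM to universal all-10-mer Agilent arrays. These arrays had been made double-stranded by primer extension on fresh or once-stripped slides. Detection used fluorescent anti-GST, normalisation used masliner, and E-scores for ungapped eight-base words pooled with reverse complements came from the Universal PBM Analysis Suite.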
row,Sequence,PBM E-score
1,TGAGAGAA,0.236
2,CCAAGTGG,-0.215
3,TATATTCA,0.194
4,GTATTGCA,0.0191
5,CCCGATAA,-0.0989
6,TCTGTGAA,0.0699
7,CAGTTATA,-0.0382
8,TAGTACCA,-0.0672
9,CGCTCGGA,-0.105
10,AACCCCTC,-0.279
11,CCGTAGAC,-0.153
12,ACCTTCCT,-0.15
13,CAATAACG,0.19
14,CAAAAAAA,0.32
15,CATCAGCG,0.044
16,TATATGGA,0.0562
17,ACGTGTTC,0.0516
18,TACGCTAA,0.103
19,AGTTCCAC,-0.145
20,ATCCAAAC,0.0285
21,CGGCGCGC,0.242
22,AACCAGCC,-0.137
23,AGATTCAC,-0.122
24,CCTTGCCC,-0.127
25,AGCCAAGG,-0.0791

row,Sequence,PBM E-score
1,AAAACTTA,0.217
2,TCCGTCAA,0.124
3,ATAACTTG,0.0655
4,ATTTACAA,0.254
5,AATTTCAG,0.144
6,AATAACCG,0.0476
7,AGGGGGGC,-0.41
8,GAAGCGGC,0.0855
9,AACTAGCC,-0.211
10,GACGTGAA,0.142
11,ACAGCAAG,0.0827
12,ACGGCCCC,0.153
13,CTAGTCGC,-0.299
14,CAGGAACA,-0.155
15,CTAGACAA,0.0226
16,GTTTGTTA,0.198
17,AAACTGCG,-0.0237
18,ATGCGCGG,0.113
19,ATTGATCG,0.0409
20,ATGGCAGA,0.0116
21,ATGATGCG,0.296
22,CCGCGCCG,0.198
23,CCCGAGTC,-0.141
24,CAACGTGA,-0.00233
25,CACACCAC,-0.00864

row,Sequence,PBM E-score
1,AATCCTTC,-0.119
2,TACGTTCA,0.235
3,GGTCCGAA,0.0255
4,ACACCAAC,-0.0059
5,GCGGAACC,-0.0959
6,ACGCTACA,0.0647
7,TCACAGGA,0.0449
8,CCATCTTC,0.0366
9,TACATATA,0.254
10,AGACTAGA,-0.153
11,TGTTGTAA,0.255
12,CAGTCCAA,-0.216
13,ACACGAGA,-0.107
14,ATGGGCCA,-0.128
15,AATATAAC,0.17
16,AAATGGTT,0.0669
17,CGCCCGAC,-0.0607
18,CTAGTACC,-0.239
19,GTAGGATA,-0.0496
20,ACGAGAAG,0.00653
21,AATCCACG,0.00234
22,TAAGCATA,0.128
23,ATGAAGTC,0.237
24,ACGTGATA,0.208
25,AAAAAAGA,0.118

row,Sequence,PBM E-score
1,CTACTCGA,0.00648
2,TCACCGAA,0.167
3,AATTAGCA,0.209
4,AGCGGACA,-0.187
5,ACATAAAC,0.27
6,AATAAACC,0.166
7,ATTAACGC,0.0112
8,TCGCCAGA,-0.0255
9,AGACAGCA,0.0272
10,CATACTCG,0.0887
11,ACCGAAAG,-0.0323
12,AAGTGTTA,-0.00598
13,TACTACAA,0.231
14,TCAATACA,0.217
15,AATGAAAG,0.168
16,AAGAGTCA,-0.119
17,AGCGAGTG,0.0192
18,GTGTGCTA,-0.0299
19,ATAACACC,0.106
20,CATGCGTC,0.0231
21,ATATCTCG,0.0254
22,AGCCGAGC,-0.0393
23,GAGCGAAC,-0.239
24,CGGTATGA,0.267
25,GAGCGTCA,0.271

row,Sequence,PBM E-score
1,GGTGTCTA,0.0529
2,AGGGTAGC,-0.17
3,GGGTGAAA,0.0534
4,AGATTAAG,0.0538
5,AGTCGACG,0.145
6,ATTAACTC,0.198
7,TGGCGCAA,0.0721
8,GCCGTGAA,0.184
9,AGAGCACC,-0.301
10,TGTTCTAA,0.103
11,AACGGGAC,-0.193
12,CACCCCGA,-0.145
13,GCACGTCC,-0.0855
14,CGCGCGCA,0.231
15,ATCCTCGC,-0.0897
16,ATAAGCAG,0.0195
17,ACCCGGGC,-0.281
18,ACTATACC,0.0231
19,CGTACGGA,0.168
20,CCTAGAGG,-0.356
21,AAGTTACT,0.0465
22,GTTGACCA,0.00334
23,ACTACCTA,0.0222
24,CCCTAGCA,-0.251
25,GCTCTGCC,-0.23

row,Sequence,PBM E-score
1,CGACGAAG,0.0467
2,GTGTAGAA,-0.0168
3,CTATAGAC,-0.089
4,AGCTTGGG,-0.157
5,GGTTTGCA,-0.0562
6,CCAAAGCA,-0.0223
7,AATTACCC,0.0706
8,CCAGAACC,-0.164
9,CAGAATGA,0.14
10,GAAATGAA,0.237
11,ATCCTTGC,-0.162
12,AACCATTG,0.173
13,CGTTCAAA,-0.00443
14,CATTGCGA,0.123
15,AGTTCCTG,-0.204
16,TGGCTCAA,-0.0112
17,AATCTGAT,0.0951
18,CCTCTTAC,0.0218
19,GGGTTAAC,-0.0244
20,AGCAAACA,0.0308
21,CAGCGTCA,0.279
22,CCAGGTCA,-0.242
23,CATTGAGA,0.0681
24,GGATTCCC,-0.356
25,CACGGGCA,-0.142

row,Sequence,PBM E-score
1,CAGTAACC,-0.0172
2,GGTTATCA,-0.102
3,AACTTTGT,0.11
4,CTTCTGGC,-0.141
5,ATTCCCCA,-0.282
6,CTTTTGTA,0.221
7,AGCGAGAC,-0.0779
8,CTCATGCC,-0.0552
9,ACGACGGG,-0.0596
10,GTGGTGAA,-0.0462
11,TGCAACCA,-0.109
12,CCTGGACA,-0.229
13,CCTAGTAC,-0.139
14,CTGCACCA,-0.21
15,CCAGGCAA,-0.114
16,ATATAATA,0.31
17,GGGTAACA,-0.0614
18,CACGCGTC,0.171
19,CGCCATGC,0.0733
20,CGCCGTGA,0.221
21,CACGGGGC,-0.0119
22,AGAGGTCA,-0.145
23,CGTGGAAG,0.0364
24,CGCCTTAA,0.107
25,GGGGGACA,-0.393

row,Sequence,PBM E-score
1,CATTCACG,0.0685
2,GGTGTGGA,-0.0926
3,GGACCTAA,-0.105
4,ATCACTTC,0.19
5,CCCTTAAC,-0.31
6,AGACCCTC,-0.391
7,CAGTACTG,0.0651
8,ATGGATGC,-0.155
9,ATTAACCG,0.116
10,GACTCTAC,-0.235
11,TACTGGAA,0.064
12,CGGTCTAG,-0.125
13,GGAGGGCA,-0.132
14,AAAATACG,0.181
15,CAATTTCA,0.145
16,CACAGCGC,-0.0545
17,GTCCTAAC,-0.0569
18,CAATCGTA,0.206
19,AAGGGGGG,-0.414
20,ACTAGGGC,-0.27
21,CGCCGCCG,0.0819
22,ATCCAAAG,0.141
23,GGACCCTA,-0.284
24,GCTGCGGA,-0.0606
25,GTGTATCA,0.186

row,Sequence,PBM E-score
1,CAGCACAC,-0.254
2,ACAACAAG,0.0823
3,ACGTGCAT,0.104
4,CTAGCACA,-0.248
5,ACTTCCCC,-0.155
6,TTCGACAA,0.0645
7,CCCCAACG,-0.0952
8,CGAGTAAC,0.0445
9,ACTCGTCA,0.351
10,CTTAGGGA,-0.217
11,AAGTTAGG,0.00013
12,AGTGTCAG,-0.144
13,ACTCCATC,-0.0515
14,GTGTGTGA,0.176
15,GAATGGTA,0.0416
16,ATGGCAAC,0.164
17,AAATCGTA,0.211
18,GTTCTTCA,0.139
19,CACACAGG,0.0469
20,GATGTTGC,0.0844
21,ACAGACTC,-0.117
22,GCTGCCAA,-0.0668
23,CACCCACG,0.0488
24,ATATGGCA,0.125
25,ACCAGTTA,0.138

row,Sequence,PBM E-score
1,CGCTGTCA,-0.107
2,AATCCTCG,-0.0864
3,AGTGTCTC,-0.243
4,CCGTTTAA,0.179
5,TGCACAAA,0.112
6,AGCCATAC,-0.0767
7,CCCGGATC,-0.117
8,CAGGGTCG,-0.223
9,CTCTTTTA,-0.118
10,AAAGATCC,0.011
11,AGGTTCCG,-0.124
12,CGGAATAA,-0.218
13,ATGGTAAA,0.138
14,AAGATCGT,-0.0305
15,CTTTTTAC,0.183
16,CACTGCAC,-0.0826
17,AGTTCTTG,0.0558
18,CGAAAATA,0.189
19,GAGAGTTA,0.027
20,ATCTCTTC,-0.0289
21,ACTCGCGC,0.0551
22,AGATCAGC,-0.0995
23,CCATTACC,-0.00808
24,AAACTTAT,0.27
25,AGGCAAGA,-0.0426

row,Sequence,PBM E-score
1,TGGGTCAA,-0.177
2,CTTTATTA,0.221
3,CATCCGCA,0.228
4,CGACGACG,0.0651
5,CACGTTCC,-0.207
6,ACCGGTTC,-0.179
7,CATCTAGC,-0.0725
8,ATGAAGCG,-0.149
9,CGCGACGA,0.0474
10,CAAGCTAG,-0.212
11,CAAACACA,0.136
12,AGGTCGCC,-0.0626
13,AGAGTAGA,0.00826
14,TATAATAA,0.282
15,AGACCTTA,-0.028
16,AGATTACG,0.386
17,TTTCCAAA,0.0192
18,CCAATGGG,-0.39
19,GTTGATGA,0.309
20,TATATAAA,0.298
21,ACCTCACC,0.126
22,CATTCTCA,0.245
23,ACTCATGA,0.251
24,CACGGCCG,0.226
25,GATTTTGA,0.254

row,Sequence,PBM E-score
1,AATTTATG,0.216
2,AGGACGAC,-0.204
3,CATACGCA,0.147
4,GTCAGCGA,0.0241
5,AATCAGGG,-0.329
6,ACGGGACG,-0.0627
7,ATGAATTG,0.174
8,GCACCCCA,-0.131
9,ATATTCAG,0.00607
10,CCCACCAG,-0.282
11,ATGAGTCA,0.238
12,CAAGTCCG,-0.229
13,AAATATGT,0.298
14,AAAATACT,0.157
15,AGGTCTAA,-0.0129
16,ACATGCCC,-0.153
17,CCCGTAGA,-0.321
18,ACCACGGT,-0.152
19,ACAATCGC,0.123
20,AACTAAGG,0.0828
21,GGCTTTGA,0.0448
22,CGACCCTC,-0.341
23,AAGGCGTG,0.0823
24,GACGCCCA,-0.0679
25,AGGCGAAC,0.0412

row,Sequence,PBM E-score
1,GAGAAGCA,-0.16
2,CTAATAAA,0.169
3,AGGCCAAT,-0.11
4,CCGTTAGG,-0.0476
5,AGCTAACA,-0.0347
6,CAATAGAC,0.118
7,ATCCCTAC,0.0151
8,GAGAGGGA,-0.244
9,ACATCCCA,-0.293
10,GTGTTGGA,-0.133
11,CACCTTAA,-0.0664
12,CGGGTCAA,-0.154
13,CATCGTAC,0.114
14,GTCGACAC,0.0472
15,TACGTAAA,0.42
16,AATTATGG,0.0357
17,TGGTCAAA,0.139
18,CCAGCCCC,-0.249
19,TGTGAACA,-0.0456
20,ACAAGGGA,-0.196
21,ACGCTCGA,-0.0322
22,AGTTGTAG,0.00052
23,GCTGCGCA,-0.273
24,AGCTGACA,-0.0546
25,AGCGGCCT,-0.215

row,Sequence,PBM E-score
1,CCGTATTC,0.107
2,GCTAAGTA,0.11
3,CCTTTGCA,-0.068
4,GATTCTAA,0.0395
5,GTCATTGA,0.391
6,AAATCGGA,-0.105
7,AAGTCCGG,-0.178
8,ACCGCACA,-0.102
9,ACCTATTC,0.0432
10,AAAGGCTA,-0.0383
11,GCGTCACA,0.417
12,ACGTCGGC,0.0982
13,CCTCCAAA,-0.125
14,AGTAAGAG,-0.00433
15,CACACCGC,-0.118
16,AACATAGG,0.0366
17,TAAACTGA,0.157
18,GGACTAAA,-0.124
19,CGATCGGC,0.124

# — the supplement of paper PMC3334620
